Source: a compilation of properties of binary mixtures (doi:10.1016/j.jct.2013.10.027)
The densities may have been worked out from excess volumes.

Assay: xn = mol fraction of the nth substance listed
Settings: 101 kPa

OCC(F)(F)F + CCCC[n+]1ccn(C)c1.O=S(=O)([N-]S(=O)(=O)C(F)(F)F)C(F)(F)F
mass density [kg/m3]
Settings	x1 = 0.0877	x1 = 0.2626	x1 = 0.4753	x1 = 0.6153	x1 = 0.7568	x1 = 0.8748	x1 = 1
278.15 K	1455.2	–	–	–	–	1433.5	1416.6
283.15 K	1450.3	1448	1443.7	1439.8	1433.7	1426.8	1408.5
288.15 K	1445.4	1442.9	1438.2	1434	1427.3	1419.8	1400.2
293.15 K	1440.5	1437.7	1432.8	–	1421.1	1412.5	1391.8
298.15 K	1435.6	–	1427.3	1422.4	–	1405.6	1383.4
303.15 K	1430.7	1427.6	1422	1416.7	1408.6	1398.9	1374.9
308.15 K	1425.8	1422.6	1416.6	1411	1402.4	1392	1366.2
313.15 K	1421	1417.5	–	1405.4	1396.2	1384.4	1357.4
318.15 K	1416.2	1412.5	–	1399.7	1389.9	1377.5	1348.5
323.15 K	1411.4	1407.6	1400.7	1394.1	1383.8	1370.5	–
328.15 K	1406.6	1402.6	1395.5	1388.4	1377.6	1363.3	1330.1
333.15 K	1401.9	–	1390.2	1382.8	1371.4	1356	1320.7

CCCC[n+]1ccn(C)c1.O=S(=O)([N-]S(=O)(=O)C(F)(F)F)C(F)(F)F + OCC(F)(F)F
x2 = 0
Settings	mass density [kg/m3]
278.15 K	1456.1
288.15 K	1446.5
293.15 K	1441.6
298.15 K	1436.8
303.15 K	1432
308.15 K	1427.2
313.15 K	1422.5
318.15 K	1417.8
323.15 K	1413.1
328.15 K	1408.5
333.15 K	1403.8
